Read counts are not given, so values of variants with three or more changes are uncertain.

Self-cleavage data for 167 variants are collected here from the RNAGym collection of RNA variant scans (doi:10.1093/nar/gkz1192).

B1: CPEB3 Ribozyme (parent)
chain: UAACAGGGGGCCACAGCAGAAGCGUUCACGUCGCAGCCCCUGUCAGAUUCUGGUGAAUCUGCGAAUUCUGCUGUAUAUCUC

This data set covers variants of B1. Briefly: self-cleavage, relative activity (ratio to wild type); higher = more cleavage; in vitro, sequencing. The procedure, abridged:
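Relative activity compares each variant's cleaved/total read fraction with that of the unmutated ribozyme. To get these fractions, barcoded CPEB3 ribozyme libraries from rounds of error-prone PCR were transcribed with T7 RNA polymerase for 5 hours at 37°C and then given 15 min of DNase I treatment before EDTA was added. The RNAs were reverse transcribed with template switching and sequenced on Illumina, and DNA sequencing linked barcodes to variants. A minimum of 5 reads applied, and three batches were averaged.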
For the variant A5G A20G A28G, the self-cleavage stood at 0.52. With A5G G10A U26C U66C U80C, the self-cleavage was 0.26. With A5G G24A A35G A45C U67C A77U U80C, the self-cleavage came to 0.11.

With A5G A45U U54C U60G, the self-cleavage is 0.4. For the variant A5G G36C U41C U80A, the self-cleavage came to 0.63. With A5G A13G A65G U67C U80C, the self-cleavage was found to be 0.28. Next, A5G A20U U26G A28G U54C U58C U67C: 0.28. Consider A5G A20G U25C U26C G33U U43A U78C, for which the self-cleavage amounted to 0.09. In the case of A5G A21G A45G U72C, the self-cleavage was 0.12.

Turning to A5G C29U C39U U78C, the self-cleavage was determined as 0.06.

As to A5G A18U A56G U67A U80C, the self-cleavage stood at 0.35. As to A5G A18G A75G U80C, the self-cleavage was determined as 0.16. In the case of A5G A28U A35U G36A A47U U60A, the self-cleavage amounted to 0.27. A5G G6A G24U G30A U31C A47G U78C: the self-cleavage worked out at 0.13. As for A5G C23U C40A A47C U67A, the self-cleavage was 0.07. Next, A5G A15C C34U A64U A65G U69A U72C: 0.08; A5C U25C A45U: 0.41.

Take A5G A45U U80C: the self-cleavage stood at 0.34. A5G C39U A45U A57C U69C A77G: the self-cleavage came out at 0.13.

Consider A5G C14A A45G U51C U54A, for which the self-cleavage was found to be 0.54. Take A5G A18U C40U: the self-cleavage was determined as 0.12. The value for A5G A15C A35U C38U U58C was 0.26; that for A5G G10A A13G A18U A47G U69C was 0.07; that for A5C U31C U48G U60A G70A U72C was 0.05.

Take A5G A45C U60C A65G: the self-cleavage was determined as 0.27. Take A5G A47U A57U: the self-cleavage amounted to 0.4.

On to A5G C12U C23A U54A C71A A77U U78A, for which the self-cleavage amounted to 0.11. Regarding A5G A18U A35U U41A U80C, the self-cleavage stood at 0.39. In the case of A5G C23A U26C A47U A64G U66A, the self-cleavage came out at 0.2. For the variant A5G A15U C39U, the self-cleavage was determined as 0.32. With A5G G10A A13G G30A U31C A35U A45G, the self-cleavage was 0.1. For A5G C12A A18G U31A G36A U66C U74C, the self-cleavage stood at 0.05. On to A5C G9A A15G A65G U76C, for which the self-cleavage worked out at 0.34.

Consider A5G A20U C23A A45U U51A U60C, for which the self-cleavage was 0.08. As for A5G A45U G63U U72A U80C, the self-cleavage worked out at 0.15. Regarding A5G G53C A57U, the self-cleavage came to 0.41.

In the case of A5G G7C U43C U54A A56G U72A, the self-cleavage worked out at 0.2. Turning to A5G A13U U41C, the self-cleavage is 0.8. For A5C G9A A45G, the self-cleavage stood at 0.11.

Turning to A5G A13U A15U A21G A47G, the self-cleavage turned out to be 0.34.

Consider A5G A18U A45G U48A U49C A64G, for which the self-cleavage amounted to 0.29. In the case of A5G A20G U54A, the self-cleavage was 0.79. Consider A5G G6A A56U U60C, for which the self-cleavage turned out to be 0.18. Regarding A5C U49C U54A, the self-cleavage worked out at 0.17. Regarding A5G A13G U25G U58G U66C U74A, the self-cleavage amounted to 0.11. On to A5G G7C A47G, for which the self-cleavage is 0.28.

As for A5G U25A U72A, the self-cleavage came out at 0.43. As for A5G A28G U49C U54G, the self-cleavage turned out to be 0.19. Regarding A5G A13U A21G C81U, the self-cleavage came out at 0.15. With A5G C29U U31C, the self-cleavage was 0.38. For A5G A20U U49C, the self-cleavage is 0.1. As for A5G U25A A35G C40A U41C, the self-cleavage amounted to 0.32. Next, A5G A56C U78C: 0.26; A5G G9A U66C: 0.57; A5G A20G U41A A56U A75G U78C: 0.05. Next, A5G G24A U43A U80A: 0.08. On to A5G A28G U41C C79U, for which the self-cleavage was 0.49. As to A5G A21G A35G A57G U60C A64G U78A, the self-cleavage is 0.19.

A5G A18G C40U U49G A57U G63A: the self-cleavage was determined as 0.11. On to A5G G9U U25C G36U A56G, for which the self-cleavage turned out to be 0.08.

As for A5G A28G U54C A56G G63A C79A U80C, the self-cleavage is 0.16. Take A5G G24A A56G U67A: the self-cleavage is 0.43. Next, A5G G22A U31C A56G U60C: 0.17. On to A5G A15C A35U G61C, for which the self-cleavage worked out at 0.09.

As to A5G A15U U41C G55A, the self-cleavage worked out at 0.41. The value for A5C G22A U41C U48C U78C was 0.07; that for A5G A18U C34U U41C C62G was 0.39; that for A5G A21G A47G was 0.41. Next, A5G A35G G53A: 1.22; A5G G33A C40U U51A A64G C71G U78C: 0.03. As for A5G G16U U54C G73C A75U, the self-cleavage is 0.23.

Consider A5G A15G A45U U51C A57U U67C, for which the self-cleavage was 0.17.

Take A5G C11G A13G: the self-cleavage worked out at 0.55. Next, A5G A47U A56G U69G: 0.16; A5C U31A G36A C44U U72G U80A: 0.05; A5G A35G U54A A57U: 1.08.

Take A5G G30C U41A: the self-cleavage is 0.35. Regarding A5G A15G A20U A45U U58C, the self-cleavage is 0.38. As for A5G A13U A28U, the self-cleavage was determined as 0.78. As for A5G A13G U69A, the self-cleavage was 0.23.

As for A5G A45G U51C A56G U78C, the self-cleavage was 0.23. For A5G A13G A18G G33A U41A U80A, the self-cleavage was 0.1.

Take A5G A13U U60C C62U A64G: the self-cleavage came to 0.23. The value for A5G G33A U54A U60C was 0.1; that for A5G A21G U31C U41C U43G was 0.09; that for A5G G9U U48C U72C was 0.16. As to A5G A15G A28G, the self-cleavage was 0.41. For the variant A5G A15U U31C U51A, the self-cleavage worked out at 0.59. On to A5G C29A C40A, for which the self-cleavage came to 0.13.

With A5G A18G U72C, the self-cleavage came out at 0.55. Consider A5G C11G A28G C39A U72C, for which the self-cleavage was found to be 0.11. On to A5G A20G U60C A64G, for which the self-cleavage stood at 0.28. Next, A5G A28G U31C: 0.49; A5G G6U G10A U48C U72A U74C: 0.31. For A5G A13G U60A, the self-cleavage amounted to 0.11. Consider A5G G53A A57G A64U, for which the self-cleavage was 0.26. On to A5C U25C A56G U67C C68A, for which the self-cleavage was 0.32. Turning to A5G C11A U25C U66C U76C, the self-cleavage was 0.21. Take A5G A45G A64G: the self-cleavage is 0.62. Next, A5G A18G U58A U78A: 0.66; A5G A18U G30U U51C: 0.08; A5G A28G A35U C40A: 0.1. Consider A5G A35G U80A, for which the self-cleavage was determined as 1.32.

A5G A13G A18U U51C A57G A77G: the self-cleavage was found to be 0.19. As to A5G G7U G9C G16C U43A U66C U74C, the self-cleavage came out at 0.2. The value for A5G A45U U49C G70C was 0.12; that for A5G G8U A20G was 0.37; that for A5G A47G U72A was 0.53. Next, A5G A13G A28U C37A U41C A57G C71A: 0.22. In the case of A5G A20U U48C U67C, the self-cleavage came out at 0.05. Next, A5G C23A U51C U72C G73U: 0.59; A5G C11G A28G A57G U58A U67C: 0.07. For A5G A13G G73A U80C, the self-cleavage worked out at 0.8.

In the case of A5G A15G U41C U80C, the self-cleavage came to 0.55. With A5G A15C U51A G55A A57G, the self-cleavage came out at 0.16.

Regarding A5G A15G U26C G42A, the self-cleavage amounted to 0.45. In the case of A5G A21G U26C A64G, the self-cleavage worked out at 0.1. Next, A5G A35U U74G: 0.55; A5G A15U U31C A47U U80C: 0.08. The value for A5G A15G U51C U54A U72C was 0.88; that for A5G A20G U31C A64U U69C was 0.21; that for A5G A18G U54C A57G U66C was 0. As for A5G A28G U43C U49C A56G, the self-cleavage is 0.48.

With A5C U31C G36A U69C A75U, the self-cleavage came to 0.38.

As to A5G A35U U41A, the self-cleavage stood at 0.16. Consider A5G C23U U51C U72A, for which the self-cleavage is 0.05. Next, A5G A13U A18C U74C U76C: 0.23; A5G A13U A20G: 0.48. Consider A5G A28U G33U, for which the self-cleavage was 0.29. For the variant A5G G10A C27U U31A A64G, the self-cleavage came to 0.1. The value for A5G A13G U26C U72C U80A was 0.59; that for A5G G9A U25A C27U A28G U54A U58C was 0.06. Next, A5G A20G A21G U25C U49C U58C: 0.16; A5G A13G U49C U51C A56G: 0.62; A5G A13U U54C U72C: 0.63. The value for A5G A15U A28G C34U U78C was 0.09. A5G A18U U43C: the self-cleavage is 0.18. The value for A5G A28G A35U U54C was 0.08; that for A5G A45G U48C U60C was 0.51; that for A5G A45G U66C was 0.22. The value for A5C G10C A21G U31C U43C U51C A65G was 0.07; that for A5G G8A C14U U78A was 0.19; that for A5C G36C U74C was 0.18. As for A5G A13G A28U G36U U72C, the self-cleavage was 0.24. Next, A5G G55A A77U: 0.49; A5G A21G U26C U66A U74A: 0.44.

Take A5G A28G U41A U49C U72C U80C: the self-cleavage came to 0.12. For the variant A5G A20G A28G U43A, the self-cleavage came to 0.26. Next, A5G A18G U54G A56G U72A: 0.14. On to A5G A15U C40A G42A U74G A75U, for which the self-cleavage was determined as 0.06. With A5G A20G A35U U43C, the self-cleavage is 0.21. Take A5G A21U U41A U54G: the self-cleavage was found to be 0.06. On to A5G A15G A18C C39A U48C A56G A64G, for which the self-cleavage turned out to be 0.04. The value for A5G G10A A20G U25A U49C U67C was 0.04; that for A5G A35G U49C A77U was 0.26. On to A5G A18G U26C A57U U58C A64C U78C, for which the self-cleavage was 0.12. Regarding A5G A13U U43A G73A, the self-cleavage was determined as 1.07. For A5G A21G U25C C37U A47C G70C U78C, the self-cleavage amounted to 0.05. On to A5G A64G U69G, for which the self-cleavage was 0.22. For the variant A5G A13U A21U U66G, the self-cleavage came out at 0.37. Take A5G A13U A20U U72A: the self-cleavage was 0.18. As for A5G G8A U31G C38A A56G U72C U78G, the self-cleavage turned out to be 0.03. For A5C G8A A20G A35U U43C, the self-cleavage is 0.06. With A5G A13G G36C, the self-cleavage is 0.57. Next, A5G G10C C71G: 0.14; A5C G33A A45G U54C U66C: 0.16.

Consider A5C G9A A35U G55U, for which the self-cleavage worked out at 0.08.
